# Data as given in the supplement of paper PMC11417369.
# The list shows a part of the results.
# Test system: PfHDP1 homeodomain (GST-tagged)
# Assay: gcPBM binding intensity (ln(normalized median fluorescence intensity)); higher = stronger DNA binding
# In short: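 Binding of GST-tagged P. falciparum DNA-binding domains, expressed in E. coli and used at about 25 μg on average, was carried out for 1 h in 1× PBS containing 1% milk, 0.2 mg/ml BSA, 0.5% salmon testes DNA and 0.03% Triton X-100. The target was an Agilent 4 × 180k array of primer-extended double-stranded 36-bp intergenic genomic probes plus negative controls, read with Alexa488 anti-GST antibody at 488 nm. Binding intensity is the highest Masliner-normalised natural-log median intensity across replicate spots of either probe orientation.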
row,Sequence,gcPBM binding intensity (ln)
1,ATGTTGTGGATATATACACACATACATATTTATATA [CACACA_site6857],7.22
2,AAACATATGGTATTTAAACACACAAAAAAGAAAGAA [CACACA_site8239],7.18
3,TACAAGAACAAAAAATGTACGAAATAATTACAAATA [XGTACX_site5824],6.52
4,AATCTTTTTAAATCTTGATTAATTTCGGGTATATAT [TGCATGCA_negctrl_site107],6.4
5,TAATTATATAAATACACACACATACACCCAAATAAA [CACACA_site5819],7.35
6,TATATACTATATATATGTACACAAAATTATTTTGAA [XGTACX_site8232],6.67
7,ATATGTAGTGTTATTTGTTCATTGTTTTAATTTTTA [CACACA_negctrl_site1394],6.75
8,TATTATATATAATATTGTACATTAAAATATTAAAGA [XGTACX_site3698],6.26
9,ATATGTATTAAGTGTACACATATAATGGGTTTTCTT [CACACA_site5328],6.82
10,TTTATTTTAAAATATAGTACGCAAATAAAAATAAAT [XGTACX_site7783],7.06
11,GGAACGTTCATATTTCCACACACAAAAAATAAATAT [CACACA_site9101],6.81
12,GAAAAAAAAATACATACACACAATATATTTATTTAT [CACACA_site3124],6.41
13,TTCGTATGCATGAAATGTACATGATATTATTATAAA [XGTACX_site4542],6.53
14,TTTTGTTAACATATAGAAAAGAACAAAGTTAAAAAG [XGTACX_negctrl_site462],6.7
15,TATAAATTTGTTCAATGTACATGTAAAGATATAATC [XGTACX_site371],6.61
16,ACCAATCCAAAAGAATGTACCCATGTTTTAAAATAT [XGTACX_site2907],6.39
17,TTATTTTTTATAAAATGTACATATATTTTAAATATA [XGTACX_site4026],6.46
18,TGAAGCAAAAACAAAACACACATATAAATAAATAAA [CACACA_site3925],6.71
19,ATGTATATTTTTATGTGTACGTAATAAAACATAATA [XGTACX_site7777],6.72
20,TTATTTTTTTTTAGAGCACACATTTTTAATAAGGTA [CACACA_site2133],6.83
21,TTAATTAAATATAGGGGTACATATTATATATGTTTT [XGTACX_site3677],6.54
22,ACGAAAAGATATATATGTACATATATTAAAAAAAAA [XGTACX_site1517],6.53
23,AATATGGGCATACATGTGCACTTTTTCCCGTGGTTT,9.3

row,Sequence,gcPBM binding intensity (ln)
1,TTATATGCATATTTTTGTACACAACATTGTTGTATA [XGTACX_site8707],7.18
2,AAATATTTCTGCAAGGTGCACTTTATAAATCTTTGA,8.93
3,AAGAAATTTATTTATTGTACAATATATAATTTGTTT [XGTACX_site2478],6.48
4,CTGTTCAAAATATGAACACACACATATATATATATA [CACACA_site8638],9.4
5,TTAATAGTGGAAATATGTACATAATTTTGGTCTTTT [XGTACX_site1664],6.5
6,CCATATTTAATAAAATGTACTCATTCTTTTATTTTA [XGTACX_site7802],6.47
7,ACATATGGCACATATGTACACACGTATAGATAATAT [CACACA_site2024],7.07
8,CTAAAAAAATAATAAAGTACACAAACGAATATATAA [XGTACX_site668],6.89
9,TTGAAAAATCAGCACACACACAAATACATACATATT [CACACA_site7505],6.58
10,TTTTTTTTTTTTTTTGCACACTATATTTAATATAAG [CACACA_site2444],9.31
11,CTTTTTTGGTACATCACACATTTTTACATTCCCTTT [CACACA_site4957],6.79
12,TAAAAAAAAATAAAAAGTACATATATATATATATAT [XGTACX_site1155],9.38
13,AATGGAAAAATAGGCACACACACATAAATACAGATA [CACACA_site4844],6.96
14,AGTGCTACTCATGATTGAATAGAGGAAAAGGCGGTG [GTGCAC_negctrl_site49],6.21
15,AATATGAAACAAGACGCACACATAAATAAATAAATA [CACACA_site326],6.73
16,CACATAAAAAAATAAACACACATATGTATATAAATA [CACACA_site7483],6.63
17,CTTTAAATGATGTAAACACACACATATACATTATTA [CACACA_site9035],6.5
18,TATAAATGATTAATTTGTACATATTTTACTTAATTG [XGTACX_site5271],6.28
19,CCATTCAAATTTCGCACACACATACAAAAAAAAAAA [CACACA_site3093],7.35
20,TAAATAAATAAATATATATATATATATATATATATA [XGTACX_negctrl_site70],9.39
21,TTGATGATATCATTTTGTACTTATACGTATTTAAAA [XGTACX_site148],6.77
22,ACAAAATATTTTTCTTCACACATCCATTCAACATTT [CACACA_site5886],6.9
23,ACAAAAAAAAAAAAAATACACACACATAAAAAAAAA [TGCATGCA_negctrl_site333],6.2

row,Sequence,gcPBM binding intensity (ln)
1,TATATATATATATATATTAATAATTAATATAAAAGA [XGTACX_negctrl_site32],9
2,AATCAAAACATTAAAAAGAAAAAATATATATATATA [CACACA_negctrl_site366],9.03
3,CCACTATATAAAATCACACATTTATATTATACATAT [CACACA_site4570],6.55
4,ATAGATGCATATTATACACACATATGTAAATACATT [CACACA_site4691],7.34
5,ATAATAGTTAAATGTACACACTAACTACATGGAATA [CACACA_site5753],6.43
6,TTGAAGTTAATAAAAACTTTATACATGAAATTATTT [CACACA_negctrl_site684],5.89
7,AAAAAAAGAAATTAGGTGCATAGCATTAACCGATAA [GTGCAC_site9582],9.48
8,TTTATTTTAATTTATTGTACATTGTTATCAAGTGCA [XGTACX_site1110],6.47
9,TATTGGTAATGTAAATGTACATATAGATATTTACAT [XGTACX_site1922],6.19
10,GATTCCTTTAACCCTGCACACATACATACATTTATA [CACACA_site9308],8.55
11,TATATTTCTTATTACATACACACATATACATATATG [CACACA_site3202],7.01
12,TAATAATATAATAATACACACTCATTATATATATAA [CACACA_site6045],6.49
13,TATATATTTTTTTCATGTACATATAAATTAATTAAA [XGTACX_site8680],6.77
14,ACACAAAAAATTAAGTGTACTCATCAAGAAAAAAAA [XGTACX_site3456],6.25
15,ATAAAATACCCTGATCTATTACATATTATATTCTGC [GTGCAC_negctrl_site311],6.3
16,ATAGGAAAAAGTATTGGTACACATACATATACGTTA [XGTACX_site5819],6.31
17,TTATATGTTTTGTGTACACAATTTATTAAATTAATA [CACACA_site5645],8.03
18,TACATATTTTTCTTTTCACACATGGAAAAAAAAGGT [CACACA_site5146],6.41
19,TATTTTTTTTTTCACTGTACATACAACAACAAATAT [XGTACX_site8835],7.04
20,CCCTTAATTTAAAACACACAAACAAATAAGTTAGTT [CACACA_site3793],6.39
21,AATATATTTATTATAACACACACATATATATATTAT [CACACA_site8264],6.6
22,ATATATATATATATATATATATATATATATAAGTGG [XGTACX_negctrl_site90],9.25
23,TATTAATTCATTTTTTTTTTTTTTTTTTTTTTTTTT [CACACA_negctrl_site1215],7.1

row,Sequence,gcPBM binding intensity (ln)
1,GATTTAATAGATACGAGTACAGAAATTGTATACATA [XGTACX_site7563],6.71
2,TTCATATTTCATATATGTACTTATGTTCAATATAGT [XGTACX_site3811],6.18
3,TTTTTTATGTTCAATTGTACATATACATATATATAT [XGTACX_site6013],8.1
4,AAAATAAGCCATATACGTACATACATATATAAATAT [XGTACX_site4197],6.4
5,CAAACAATTAAACAAACACACATATACATGTATATA [CACACA_site2060],6.54
6,TAATTACACTTTAAAAGTACATATATAATAACATTA [XGTACX_site379],6.35
7,TAATTTTCATGTTCATGTACTTAAATATAAGGTAAA [XGTACX_site3284],6.46
8,ATTCATAACAAAAAAAGTACTCAAAATAATAATAAA [XGTACX_site6079],6.53
9,TGCCTTATTAAAAGAATTACACATATTTAATCGAAA [GTGCAC_negctrl_site153],5.95
10,AAAAAAAAGGAAATAACACACATGTATATATTTATA [CACACA_site1606],6.3
11,CACCATGTTAACAATACATGCATCACTATATAAATG [TGCATGCA_site36],6.86
12,AAATATATTTTTAATAGTACAATATGAAAATTTCAT [XGTACX_site2562],6.41
13,AGTAATTATTTTAGAGTGCATAGTTTTTTAATAAAT,7.44
14,TTTTTTTTTTTTTTTTGTACTCATACATACTATTAT [XGTACX_site989],6.51
15,GTACACATATATATATATATATATATATATATATAT [CACACA_negctrl_site800],9.49
16,TATGTCCATATTTCCACACACATATTATTTTTATAT [CACACA_site3798],6.94
17,ATAAAAAAATAAATAACACACAAAATTACACGAAAA [CACACA_site3620],6.92
18,TATTAAAAAATTATATGTACACATTTGTTATATACA [XGTACX_site2232],6.33
19,TTCTTTATATATGTTCGTACATATTATTATAATACA [XGTACX_site1549],7.07
20,AATTAAAGGAATTACAACTTTGCAAGCGCAACATAA [CACACA_negctrl_site1411],6.78
